Source: the supplement of paper PMC12578646, “Prodrug florfenicol amine is activated by intrinsic resistance to target Mycobacterium abscessus” (Nature Microbiology, 2025)
± gives the standard deviation of the averaged measurements. M. abscessus ATCC 19977 and its deletion, point and complemented mutants after 5 days of drug at 37 °C plus 24 h of resazurin. Growth in % of untreated wells at the dose given (lower = more inhibition); checkerboards give % inhibition (higher = more inhibition); IC50 from the fitted curve (lower = more potent). No active / inactive call. IC50 values come from the same 384-well curves. Growth is not capped and can exceed 100%. The direction of the checkerboard scale is read from the raw signals. Capreomycin is a mixture.

Key:
Test in all cases: growth relative to untreated wells; higher = more growth (less inhibition)
[1] = system: Mycobacterium abscessus ATCC 19977 Eis2 E120fs
Experimental: (§1)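 384-well two-fold dose series, two replicates; 5 days at 37 °C, then 24 h with resazurin; fluorescence scaled to growth and killed controls.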

[2] = system: Mycobacterium abscessus ATCC 19977 Eis2 T258R
Experimental: as §1

[3] = system: Mycobacterium abscessus ATCC 19977 Eis2 Y227D
Experimental: as §1

[4] = system: Mycobacterium abscessus ATCC 19977 Eis2 Y255*
Experimental: as §1

[5] = system: Mycobacterium abscessus ATCC 19977 Eis2 Y284*
Experimental: as §1

[6] = system: Mycobacterium abscessus ATCC 19977 WhiB7 A51T
Experimental: as §1

[7] = system: Mycobacterium abscessus ATCC 19977 WhiB7 F24fs
Experimental: as §1

[8] = system: Mycobacterium abscessus ATCC 19977 WhiB7 L37P
Experimental: as §1

[9] = system: Mycobacterium abscessus ATCC 19977 WhiB7 T70fs
Experimental: as §1

[10] = system: Mycobacterium abscessus ATCC 19977 Δeis2
Experimental: as §1

[11] = system: Mycobacterium abscessus ATCC 19977 ΔwhiB7
Experimental: as §1

[12] = system: Mycobacterium abscessus ATCC 19977
Experimental: as §1

Work on `NC[C@H]1O[C@H](O[C@H]2[C@H](O)[C@@H](O[C@H]3O[C@H](CO)[C@@H](O)[C@H](N)[C@H]3O)[C@H](N)C[C@@H]2N)[C@H](O)[C@@H](O)[C@@H]1O` [kanamycin A] yielded a growth ([1]; 0.03125 µg/mL) of 119 ± 1.7%, a growth ([1]; 0.0625 µg/mL) of 126 ± 4.3% and a growth ([1]; 0.125 µg/mL) of 126 ± 2.9%. The growth ([1]; 0.25 µg/mL) was 134 ± 3.3%, the growth ([1]; 0.5 µg/mL) was 83 ± 26% and the growth ([1]; 1 µg/mL) was -0.0562 ± 0.18%. For the same compound, the growth ([1]; 2 µg/mL) was -0.494 ± 0.31%, the growth ([1]; 4 µg/mL) was -0.786 ± 0.081% and the growth ([1]; 8 µg/mL) was -1.07 ± 0.059%. For the same compound, the growth ([1]; 16 µg/mL) was 4.25 ± 6.2%, the growth ([1]; 32 µg/mL) was -0.644 ± 0.18% and the growth ([1]; 64 µg/mL) was 1.03 ± 0.75%. For the same compound, the growth ([2]; 0.03125 µg/mL) was 111 ± 5%, the growth ([2]; 0.0625 µg/mL) was 120 ± 3.8% and the growth ([2]; 0.125 µg/mL) was 119 ± 5.5%. The growth ([2]; 0.25 µg/mL) was 127 ± 2.6%, the growth ([2]; 0.5 µg/mL) was 12.3 ± 0.39% and the growth ([2]; 1 µg/mL) was -0.964 ± 0.14%. The growth ([2]; 2 µg/mL) was -1.37 ± 0.32%, the growth ([2]; 4 µg/mL) was -2.28 ± 0.76% and the growth ([2]; 8 µg/mL) was -2.09 ± 0.39%. It also gave a growth ([2]; 16 µg/mL) of -1.39 ± 0.097%, a growth ([2]; 32 µg/mL) of -1.01 ± 0.23% and a growth ([2]; 64 µg/mL) of 0.0577 ± 0.021%. The growth ([3]; 0.03125 µg/mL) was 121.1 ± 0.91%, the growth ([3]; 0.0625 µg/mL) was 123 ± 7.8% and the growth ([3]; 0.125 µg/mL) was 124 ± 2.2%. It also gave a growth ([3]; 0.25 µg/mL) of 135.7 ± 0.19%, a growth ([3]; 0.5 µg/mL) of 32.9 ± 3% and a growth ([3]; 1 µg/mL) of 0.49 ± 0.67%. The growth ([3]; 2 µg/mL) was 0.315 ± 0.23%, the growth ([3]; 4 µg/mL) was -0.0789 ± 0.22% and the growth ([3]; 8 µg/mL) was 0.141 ± 0.14%. It also gave a growth ([3]; 16 µg/mL) of 0.525 ± 0.16%, a growth ([3]; 32 µg/mL) of 0.692 ± 0.61% and a growth ([3]; 64 µg/mL) of 2.62 ± 0.34%. For the same compound, the growth ([4]; 0.03125 µg/mL) was 113.6 ± 0.34%, the growth ([4]; 0.0625 µg/mL) was 122 ± 4.1% and the growth ([4]; 0.125 µg/mL) was 130 ± 1.5%. The growth ([4]; 0.25 µg/mL) was 138 ± 3.1%, the growth ([4]; 0.5 µg/mL) was 41.5 ± 39% and the growth ([4]; 1 µg/mL) was -2.42 ± 1.3%. For the same compound, the growth ([4]; 2 µg/mL) was -2.33 ± 1.8%, the growth ([4]; 4 µg/mL) was -1.79 ± 1.2% and the growth ([4]; 8 µg/mL) was -2.68 ± 2.6%. It also gave a growth ([4]; 16 µg/mL) of -2 ± 2%, a growth ([4]; 32 µg/mL) of -1.7 ± 2% and a growth ([4]; 64 µg/mL) of -0.489 ± 2.5%. For the same compound, the growth ([5]; 0.03125 µg/mL) was 113 ± 5.2%, the growth ([5]; 0.0625 µg/mL) was 119 ± 2% and the growth ([5]; 0.125 µg/mL) was 112 ± 2.3%. The growth ([5]; 0.25 µg/mL) was 131.1 ± 0.69%, the growth ([5]; 0.5 µg/mL) was 40.7 ± 14% and the growth ([5]; 1 µg/mL) was -1.06 ± 1%. For the same compound, the growth ([5]; 2 µg/mL) was -0.628 ± 0.29%, the growth ([5]; 4 µg/mL) was -1.87 ± 0.87% and the growth ([5]; 8 µg/mL) was -1.73 ± 0.27%. It also gave a growth ([5]; 16 µg/mL) of -1.01 ± 0.2%, a growth ([5]; 32 µg/mL) of -0.632 ± 0.27% and a growth ([5]; 64 µg/mL) of 5.52 ± 6.6%. It also gave a growth ([6]; 0.03125 µg/mL) of 110 ± 3.9%, a growth ([6]; 0.0625 µg/mL) of 122 ± 4.3% and a growth ([6]; 0.125 µg/mL) of 124 ± 4.5%. For the same compound, the growth ([6]; 0.25 µg/mL) was 135 ± 1.8%, the growth ([6]; 0.5 µg/mL) was 1.23 ± 1.4% and the growth ([6]; 1 µg/mL) was -0.407 ± 0.42%. It also gave a growth ([6]; 2 µg/mL) of -0.628 ± 0.74%, a growth ([6]; 4 µg/mL) of -1.3 ± 0.22% and a growth ([6]; 8 µg/mL) of -1.6 ± 0.37%. The growth ([6]; 16 µg/mL) was -0.757 ± 0.33%, the growth ([6]; 32 µg/mL) was -0.418 ± 0.69% and the growth ([6]; 64 µg/mL) was 0.756 ± 0.74%. The growth ([7]; 0.03125 µg/mL) was 108 ± 18%, the growth ([7]; 0.0625 µg/mL) was 124 ± 8.7% and the growth ([7]; 0.125 µg/mL) was 115.9 ± 0.5%. It also gave a growth ([7]; 0.25 µg/mL) of 133.6 ± 0.31%, a growth ([7]; 0.5 µg/mL) of 0.381 ± 0.39% and a growth ([7]; 1 µg/mL) of 0.128 ± 0.16%. The growth ([7]; 2 µg/mL) was -0.404 ± 0.63%, the growth ([7]; 4 µg/mL) was -1.33 ± 0.37% and the growth ([7]; 8 µg/mL) was -0.883 ± 0.73%. The growth ([7]; 16 µg/mL) was -0.762 ± 0.51%, the growth ([7]; 32 µg/mL) was -0.229 ± 0.38% and the growth ([7]; 64 µg/mL) was 0.868 ± 0.025%. For the same compound, the growth ([8]; 0.03125 µg/mL) was 120 ± 2.9%, the growth ([8]; 0.0625 µg/mL) was 122 ± 4.7% and the growth ([8]; 0.125 µg/mL) was 134 ± 3.1%. It also gave a growth ([8]; 0.25 µg/mL) of 135.9 ± 1.1%, a growth ([8]; 0.5 µg/mL) of -0.0539 ± 0.68% and a growth ([8]; 1 µg/mL) of -0.526 ± 0.071%. For the same compound, the growth ([8]; 2 µg/mL) was -0.482 ± 0.14%, the growth ([8]; 4 µg/mL) was -1.06 ± 0.57% and the growth ([8]; 8 µg/mL) was -1.02 ± 0.14%. The growth ([8]; 16 µg/mL) was -0.463 ± 0.32%, the growth ([8]; 32 µg/mL) was -0.406 ± 0.17% and the growth ([8]; 64 µg/mL) was 1.12 ± 0.22%. The growth ([9]; 0.03125 µg/mL) was 108 ± 3.1%, the growth ([9]; 0.0625 µg/mL) was 123 ± 5.2% and the growth ([9]; 0.125 µg/mL) was 117 ± 5.5%. For the same compound, the growth ([9]; 0.25 µg/mL) was 128 ± 2.5%, the growth ([9]; 0.5 µg/mL) was -1.94 ± 0.74% and the growth ([9]; 1 µg/mL) was -2.85 ± 0.69%. The growth ([9]; 2 µg/mL) was -3.45 ± 1.5%, the growth ([9]; 4 µg/mL) was -3.53 ± 0.88% and the growth ([9]; 8 µg/mL) was -3.39 ± 1%. For the same compound, the growth ([9]; 16 µg/mL) was -2.95 ± 0.75%, the growth ([9]; 32 µg/mL) was -2.32 ± 0.92% and the growth ([9]; 64 µg/mL) was -1.52 ± 1.2%. It also gave a growth ([10]; 0.03125 µg/mL) of 107 ± 2.6%, a growth ([10]; 0.0625 µg/mL) of 113 ± 3.1% and a growth ([10]; 0.125 µg/mL) of 115 ± 2.2%. For the same compound, the growth ([10]; 0.25 µg/mL) was 136 ± 4.3%, the growth ([10]; 0.5 µg/mL) was 5.28 ± 3.7% and the growth ([10]; 1 µg/mL) was -0.606 ± 0.38%. For the same compound, the growth ([10]; 2 µg/mL) was -1.23 ± 0.39%, the growth ([10]; 4 µg/mL) was -1.88 ± 0.3% and the growth ([10]; 8 µg/mL) was -2.18 ± 0.09%. The growth ([10]; 16 µg/mL) was -1.41 ± 0.018%, the growth ([10]; 32 µg/mL) was -0.985 ± 0.031% and the growth ([10]; 64 µg/mL) was -0.218 ± 0.1%. It also gave a growth ([11]; 0.03125 µg/mL) of 117 ± 1.4%, a growth ([11]; 0.0625 µg/mL) of 126 ± 9% and a growth ([11]; 0.125 µg/mL) of 157 ± 2.8%. It also gave a growth ([11]; 0.25 µg/mL) of 97.2 ± 56%, a growth ([11]; 0.5 µg/mL) of -1.57 ± 4.4% and a growth ([11]; 1 µg/mL) of -2.71 ± 4.1%. The growth ([11]; 2 µg/mL) was -2.61 ± 4.2%, the growth ([11]; 4 µg/mL) was -3.06 ± 4.3% and the growth ([11]; 8 µg/mL) was -3.21 ± 4.5%. The growth ([11]; 16 µg/mL) was -2.75 ± 4.4%, the growth ([11]; 32 µg/mL) was -2.44 ± 4.5% and the growth ([11]; 64 µg/mL) was -1.35 ± 4.3%. It also gave a growth ([12]; 0.03125 µg/mL) of 113 ± 3.3%, a growth ([12]; 0.0625 µg/mL) of 122 ± 2.1% and a growth ([12]; 0.125 µg/mL) of 122 ± 1.8%. The growth ([12]; 0.25 µg/mL) was 131 ± 1.9%, the growth ([12]; 0.5 µg/mL) was 129 ± 6.2% and the growth ([12]; 1 µg/mL) was 26.2 ± 29%. For the same compound, the growth ([12]; 2 µg/mL) was -0.192 ± 1%, the growth ([12]; 4 µg/mL) was 5.65 ± 7.3% and the growth ([12]; 8 µg/mL) was 3.17 ± 4.9%. It also gave a growth ([12]; 16 µg/mL) of -0.433 ± 1.1%, a growth ([12]; 32 µg/mL) of -0.0013 ± 0.84% and a growth ([12]; 64 µg/mL) of 1.13 ± 0.59%.
